Measured values published in PMC4534575, “The RNA Helicase DHX34 Activates NMD by Promoting a Transition from the Surveillance to the Decay-Inducing Complex” (Cell Reports, 2014).
Results are given in words; binding and its absence hold for the method and conditions named. In cells and extracts the contact can be indirect. Some entries that bind do so weakly or less than the wild type. Tags and fused reporters may be left off the sequences shown.

Assays:
[1] = molecular target: T1, FLAG-UPF1 LECY181-184VRVD (human) (UniProt Q92900); experiment: co-IP; anti-FLAG IP from HEK293T cells cotransfected with FLAG-UPF1 (wild-type or mutants) and T7-DHX34 (wild-type or ATPase mutants); RNase A in Figure 3C; T7-DHX34 by western blot
T1 sequence: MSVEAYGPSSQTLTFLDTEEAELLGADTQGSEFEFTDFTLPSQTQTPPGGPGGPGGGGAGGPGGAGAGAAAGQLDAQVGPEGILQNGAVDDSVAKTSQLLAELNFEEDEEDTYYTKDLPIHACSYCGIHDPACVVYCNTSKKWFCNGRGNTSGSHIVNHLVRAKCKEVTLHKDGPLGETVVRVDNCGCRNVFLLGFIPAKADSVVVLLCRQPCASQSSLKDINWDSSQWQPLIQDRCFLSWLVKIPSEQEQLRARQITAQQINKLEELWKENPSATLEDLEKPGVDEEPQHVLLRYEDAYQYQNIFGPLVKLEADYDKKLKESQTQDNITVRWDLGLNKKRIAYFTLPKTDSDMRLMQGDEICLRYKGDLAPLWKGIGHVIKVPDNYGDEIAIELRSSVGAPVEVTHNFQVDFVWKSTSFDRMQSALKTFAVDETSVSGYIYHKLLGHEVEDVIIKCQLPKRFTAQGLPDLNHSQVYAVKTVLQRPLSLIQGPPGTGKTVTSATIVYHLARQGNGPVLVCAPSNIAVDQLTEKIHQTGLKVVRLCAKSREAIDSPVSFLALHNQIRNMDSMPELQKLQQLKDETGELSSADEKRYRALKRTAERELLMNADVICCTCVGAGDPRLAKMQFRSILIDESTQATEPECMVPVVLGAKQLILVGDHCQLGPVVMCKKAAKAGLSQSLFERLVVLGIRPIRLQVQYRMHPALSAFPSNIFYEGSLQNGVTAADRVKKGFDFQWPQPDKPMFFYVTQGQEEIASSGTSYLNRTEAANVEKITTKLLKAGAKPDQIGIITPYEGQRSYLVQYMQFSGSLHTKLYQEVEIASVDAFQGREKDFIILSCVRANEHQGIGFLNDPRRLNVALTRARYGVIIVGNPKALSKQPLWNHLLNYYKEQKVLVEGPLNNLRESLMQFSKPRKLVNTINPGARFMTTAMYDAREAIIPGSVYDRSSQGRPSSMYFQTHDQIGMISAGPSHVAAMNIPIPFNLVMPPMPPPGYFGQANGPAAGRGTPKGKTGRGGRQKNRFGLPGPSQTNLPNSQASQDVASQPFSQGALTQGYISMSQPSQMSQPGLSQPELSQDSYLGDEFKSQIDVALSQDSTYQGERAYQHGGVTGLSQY

FLAG-UPF1 C126S (human) = molecular target: T2, FLAG-UPF1 C126S (human) (UniProt Q92900); experiment: as above
T2 sequence: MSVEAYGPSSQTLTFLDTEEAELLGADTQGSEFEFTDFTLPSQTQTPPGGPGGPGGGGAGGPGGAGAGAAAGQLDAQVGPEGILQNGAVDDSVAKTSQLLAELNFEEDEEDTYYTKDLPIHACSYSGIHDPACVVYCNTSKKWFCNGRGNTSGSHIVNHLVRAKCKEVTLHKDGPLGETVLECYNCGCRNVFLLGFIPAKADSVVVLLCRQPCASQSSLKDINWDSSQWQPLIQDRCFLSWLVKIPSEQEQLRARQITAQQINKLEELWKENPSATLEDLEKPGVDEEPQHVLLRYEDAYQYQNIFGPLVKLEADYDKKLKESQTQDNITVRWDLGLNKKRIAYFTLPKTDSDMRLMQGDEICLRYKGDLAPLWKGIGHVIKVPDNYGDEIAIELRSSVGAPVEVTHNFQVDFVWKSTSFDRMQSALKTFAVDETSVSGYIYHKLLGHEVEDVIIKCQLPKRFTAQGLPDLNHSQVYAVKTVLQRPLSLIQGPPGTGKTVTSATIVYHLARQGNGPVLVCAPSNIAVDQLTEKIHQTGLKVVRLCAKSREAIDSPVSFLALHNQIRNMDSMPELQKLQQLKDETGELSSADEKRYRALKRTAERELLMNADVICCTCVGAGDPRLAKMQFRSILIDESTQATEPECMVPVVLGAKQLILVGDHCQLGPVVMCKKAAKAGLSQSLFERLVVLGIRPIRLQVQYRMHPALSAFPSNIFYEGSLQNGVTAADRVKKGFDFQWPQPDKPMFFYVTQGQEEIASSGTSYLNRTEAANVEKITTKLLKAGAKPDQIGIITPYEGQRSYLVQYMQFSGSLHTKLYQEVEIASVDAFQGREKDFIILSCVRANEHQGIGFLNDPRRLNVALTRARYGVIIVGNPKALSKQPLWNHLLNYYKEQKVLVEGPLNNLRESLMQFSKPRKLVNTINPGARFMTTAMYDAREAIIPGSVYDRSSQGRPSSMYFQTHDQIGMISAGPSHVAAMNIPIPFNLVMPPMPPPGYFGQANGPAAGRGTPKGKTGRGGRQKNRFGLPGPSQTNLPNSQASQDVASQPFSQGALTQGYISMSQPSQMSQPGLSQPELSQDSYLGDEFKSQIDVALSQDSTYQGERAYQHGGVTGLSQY

B1: T7-DHX34 K191S (protein, UniProt Q14147 1-1143)
chain: MPPPRTREGRDRRDHHRAPSEEEALEKWDWNCPETRRLLEDAFFREEDYIRQGSEECQKFWTFFERLQRFQNLKTSRKEEKDPGQPKHSIPALADLPRTYDPRYRINLSVLGPATRGSQGLGRHLPAERVAEFRRALLHYLDFGQKQAFGRLAKLQRERAALPIAQYGNRILQTLKEHQVVVVAGDTGCGSSTQVPQYLLAAGFSHVACTQPRRIACISLAKRVGFESLSQYGSQVGYQIRFESTRSAATKIVFLTVGLLLRQIQREPSLPQYEVLIVDEVHERHLHNDFLLGVLQRLLPTRPDLKVILMSATINISLFSSYFSNAPVVQVPGRLFPITVVYQPQEAEPTTSKSEKLDPRPFLRVLESIDHKYPPEERGDLLVFLSGMAEISAVLEAAQTYASHTQRWVVLPLHSALSVADQDKVFDVAPPGVRKCILSTNIAETSVTIDGIRFVVDSGKVKEMSYDPQAKLQRLQEFWISQASAEQRKGRAGRTGPGVCFRLYAESDYDAFAPYPVPEIRRVALDSLVLQMKSMSVGDPRTFPFIEPPPPASLETAILYLRDQGALDSSEALTPIGSLLAQLPVDVVIGKMLILGSMFSLVEPVLTIAAALSVQSPFTRSAQSSPECAAARRPLESDQGDPFTLFNVFNAWVQVKSERSRNSRKWCRRRGIEEHRLYEMANLRRQFKELLEDHGLLAGAQAAQVGDSYSRLQQRRERRALHQLKRQHEEGAGRRRKVLRLQEEQDGGSSDEDRAGPAPPGASDGVDIQDVKFKLRHDLAQLQAAASSAQDLSREQLALLKLVLGRGLYPQLAVPDAFNSSRKDSDQIFHTQAKQGAVLHPTCVFAGSPEVLHAQELEASNCDGSRDDKDKMSSKHQLLSFVSLLETNKPYLVNCVRIPALQSLLLFSRSLDTNGDCSRLVADGWLELQLADSESAIRLLAASLRLRARWESALDRQLAHQAQQQLEEEEEDTPVSPKEVATLSKELLQFTASKIPYSLRRLTGLEVQNMYVGPQTIPATPHLPGLFGSSTLSPHPTKGGYAVTDFLTYNCLTNDTDLYSDCLRTFWTCPHCGLHAPLTPLERIAHENTCPQAPQDGPPGAEEAALETLQKTSVLQRPYHCEACGKDFLFTPTEVLRHRKQHV
Question: What does the source list for B1?
Answer: binding [1]: binds; binding (FLAG-UPF1 C126S (human)): binds

B2: T7-DHX34 D279A (protein, UniProt Q14147 1-1143)
chain: MPPPRTREGRDRRDHHRAPSEEEALEKWDWNCPETRRLLEDAFFREEDYIRQGSEECQKFWTFFERLQRFQNLKTSRKEEKDPGQPKHSIPALADLPRTYDPRYRINLSVLGPATRGSQGLGRHLPAERVAEFRRALLHYLDFGQKQAFGRLAKLQRERAALPIAQYGNRILQTLKEHQVVVVAGDTGCGKSTQVPQYLLAAGFSHVACTQPRRIACISLAKRVGFESLSQYGSQVGYQIRFESTRSAATKIVFLTVGLLLRQIQREPSLPQYEVLIVAEVHERHLHNDFLLGVLQRLLPTRPDLKVILMSATINISLFSSYFSNAPVVQVPGRLFPITVVYQPQEAEPTTSKSEKLDPRPFLRVLESIDHKYPPEERGDLLVFLSGMAEISAVLEAAQTYASHTQRWVVLPLHSALSVADQDKVFDVAPPGVRKCILSTNIAETSVTIDGIRFVVDSGKVKEMSYDPQAKLQRLQEFWISQASAEQRKGRAGRTGPGVCFRLYAESDYDAFAPYPVPEIRRVALDSLVLQMKSMSVGDPRTFPFIEPPPPASLETAILYLRDQGALDSSEALTPIGSLLAQLPVDVVIGKMLILGSMFSLVEPVLTIAAALSVQSPFTRSAQSSPECAAARRPLESDQGDPFTLFNVFNAWVQVKSERSRNSRKWCRRRGIEEHRLYEMANLRRQFKELLEDHGLLAGAQAAQVGDSYSRLQQRRERRALHQLKRQHEEGAGRRRKVLRLQEEQDGGSSDEDRAGPAPPGASDGVDIQDVKFKLRHDLAQLQAAASSAQDLSREQLALLKLVLGRGLYPQLAVPDAFNSSRKDSDQIFHTQAKQGAVLHPTCVFAGSPEVLHAQELEASNCDGSRDDKDKMSSKHQLLSFVSLLETNKPYLVNCVRIPALQSLLLFSRSLDTNGDCSRLVADGWLELQLADSESAIRLLAASLRLRARWESALDRQLAHQAQQQLEEEEEDTPVSPKEVATLSKELLQFTASKIPYSLRRLTGLEVQNMYVGPQTIPATPHLPGLFGSSTLSPHPTKGGYAVTDFLTYNCLTNDTDLYSDCLRTFWTCPHCGLHAPLTPLERIAHENTCPQAPQDGPPGAEEAALETLQKTSVLQRPYHCEACGKDFLFTPTEVLRHRKQHV
Question: Which binding [1] does the source give for B2 here?
Answer: binds

Question: What about the binding (FLAG-UPF1 C126S (human)) of the same binder?
Answer: binds
